Measured values as given in publication PMC5687630.
No constants are given. Whether binding was seen depends on the method and setting. In cells and extracts the contact can be indirect. Some results given as binding are weak or reduced against the parent protein; the word gives no strength. For some assays here: Tags and fused reporters may be left off the sequences shown.

Chains of the proteins cited; added tags and fusions are not shown.
UniProt Q9UKB1: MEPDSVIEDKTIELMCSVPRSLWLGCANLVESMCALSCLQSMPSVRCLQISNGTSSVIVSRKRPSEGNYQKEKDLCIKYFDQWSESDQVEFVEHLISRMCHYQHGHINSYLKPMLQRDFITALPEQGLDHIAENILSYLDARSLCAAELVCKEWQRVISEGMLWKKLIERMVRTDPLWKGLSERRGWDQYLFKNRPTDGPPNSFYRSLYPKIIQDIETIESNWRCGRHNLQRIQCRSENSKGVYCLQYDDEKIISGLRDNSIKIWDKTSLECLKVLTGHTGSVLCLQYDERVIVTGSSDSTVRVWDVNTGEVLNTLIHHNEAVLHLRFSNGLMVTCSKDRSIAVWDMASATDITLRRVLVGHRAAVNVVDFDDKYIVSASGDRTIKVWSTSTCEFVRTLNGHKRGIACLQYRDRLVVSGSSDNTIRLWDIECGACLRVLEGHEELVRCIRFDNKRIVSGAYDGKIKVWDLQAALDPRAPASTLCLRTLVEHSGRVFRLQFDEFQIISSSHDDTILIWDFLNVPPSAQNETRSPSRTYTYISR
UniProt P49841: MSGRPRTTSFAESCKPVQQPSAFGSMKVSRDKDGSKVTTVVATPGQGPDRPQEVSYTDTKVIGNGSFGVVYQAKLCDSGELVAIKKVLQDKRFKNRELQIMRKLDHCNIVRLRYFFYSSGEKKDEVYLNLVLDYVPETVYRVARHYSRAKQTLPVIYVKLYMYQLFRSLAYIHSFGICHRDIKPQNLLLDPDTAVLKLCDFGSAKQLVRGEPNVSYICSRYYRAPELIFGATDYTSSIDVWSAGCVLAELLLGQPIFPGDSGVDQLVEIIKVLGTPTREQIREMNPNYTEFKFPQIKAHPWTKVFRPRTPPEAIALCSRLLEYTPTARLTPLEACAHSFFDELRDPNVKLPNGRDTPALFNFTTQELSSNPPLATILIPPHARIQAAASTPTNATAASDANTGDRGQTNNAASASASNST
UniProt P49840: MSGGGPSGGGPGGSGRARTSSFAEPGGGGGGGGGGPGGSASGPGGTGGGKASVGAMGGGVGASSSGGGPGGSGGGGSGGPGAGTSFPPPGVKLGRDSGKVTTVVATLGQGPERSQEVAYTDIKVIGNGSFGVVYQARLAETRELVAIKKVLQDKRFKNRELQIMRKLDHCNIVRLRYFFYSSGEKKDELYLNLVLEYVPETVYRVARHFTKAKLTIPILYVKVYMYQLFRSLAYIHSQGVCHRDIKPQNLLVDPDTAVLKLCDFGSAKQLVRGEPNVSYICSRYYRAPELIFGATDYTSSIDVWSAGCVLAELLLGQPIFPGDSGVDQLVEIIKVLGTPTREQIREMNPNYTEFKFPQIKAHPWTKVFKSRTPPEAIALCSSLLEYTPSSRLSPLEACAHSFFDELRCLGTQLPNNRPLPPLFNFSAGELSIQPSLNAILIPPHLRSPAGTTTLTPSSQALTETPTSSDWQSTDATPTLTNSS

Columns and labels:
[1] = target: T1, Zinc finger protein 281 (ZNF281), endogenous (human (endogenous in HCT116)) (UniProt Q9Y2X9); test: co-IP; endogenous proteins in total lysates of HCT116 cells, IP with the indicated antibody (anti-ZNF281 or reciprocal), immunoblotting; rabbit IgG as IP negative control
T1 sequence: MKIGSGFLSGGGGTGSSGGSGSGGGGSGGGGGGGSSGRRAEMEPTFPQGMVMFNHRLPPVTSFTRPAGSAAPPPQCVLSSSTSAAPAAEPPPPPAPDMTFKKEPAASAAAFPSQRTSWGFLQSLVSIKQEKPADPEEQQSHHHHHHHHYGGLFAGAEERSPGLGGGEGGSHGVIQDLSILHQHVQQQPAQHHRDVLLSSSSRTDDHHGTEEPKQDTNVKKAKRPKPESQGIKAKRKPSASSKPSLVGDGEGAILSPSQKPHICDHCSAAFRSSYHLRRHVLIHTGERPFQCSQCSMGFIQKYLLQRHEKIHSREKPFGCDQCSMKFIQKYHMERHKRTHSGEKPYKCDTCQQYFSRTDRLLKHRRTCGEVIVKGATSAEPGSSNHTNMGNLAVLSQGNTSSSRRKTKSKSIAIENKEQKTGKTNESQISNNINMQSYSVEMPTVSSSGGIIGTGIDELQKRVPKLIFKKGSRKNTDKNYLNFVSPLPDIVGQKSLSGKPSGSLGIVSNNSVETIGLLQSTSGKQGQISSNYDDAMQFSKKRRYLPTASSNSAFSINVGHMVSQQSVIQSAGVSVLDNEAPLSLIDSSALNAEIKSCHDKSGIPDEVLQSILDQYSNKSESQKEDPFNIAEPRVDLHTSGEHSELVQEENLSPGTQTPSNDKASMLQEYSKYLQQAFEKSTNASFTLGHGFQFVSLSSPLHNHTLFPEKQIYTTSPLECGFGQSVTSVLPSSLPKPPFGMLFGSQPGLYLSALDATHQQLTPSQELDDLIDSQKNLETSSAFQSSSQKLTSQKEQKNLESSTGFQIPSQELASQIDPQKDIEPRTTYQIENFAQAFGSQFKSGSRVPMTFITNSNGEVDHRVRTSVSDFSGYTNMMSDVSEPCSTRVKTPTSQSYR

[2] = target: T2, HA-ZNF281 (wild type, transfected) (UniProt Q9Y2X9); test: co-IP; co-transfection of GSK-3β or GSK-3α with ZNF281, co-IP and Western blotting; cell line not stated for this experiment
T2 sequence: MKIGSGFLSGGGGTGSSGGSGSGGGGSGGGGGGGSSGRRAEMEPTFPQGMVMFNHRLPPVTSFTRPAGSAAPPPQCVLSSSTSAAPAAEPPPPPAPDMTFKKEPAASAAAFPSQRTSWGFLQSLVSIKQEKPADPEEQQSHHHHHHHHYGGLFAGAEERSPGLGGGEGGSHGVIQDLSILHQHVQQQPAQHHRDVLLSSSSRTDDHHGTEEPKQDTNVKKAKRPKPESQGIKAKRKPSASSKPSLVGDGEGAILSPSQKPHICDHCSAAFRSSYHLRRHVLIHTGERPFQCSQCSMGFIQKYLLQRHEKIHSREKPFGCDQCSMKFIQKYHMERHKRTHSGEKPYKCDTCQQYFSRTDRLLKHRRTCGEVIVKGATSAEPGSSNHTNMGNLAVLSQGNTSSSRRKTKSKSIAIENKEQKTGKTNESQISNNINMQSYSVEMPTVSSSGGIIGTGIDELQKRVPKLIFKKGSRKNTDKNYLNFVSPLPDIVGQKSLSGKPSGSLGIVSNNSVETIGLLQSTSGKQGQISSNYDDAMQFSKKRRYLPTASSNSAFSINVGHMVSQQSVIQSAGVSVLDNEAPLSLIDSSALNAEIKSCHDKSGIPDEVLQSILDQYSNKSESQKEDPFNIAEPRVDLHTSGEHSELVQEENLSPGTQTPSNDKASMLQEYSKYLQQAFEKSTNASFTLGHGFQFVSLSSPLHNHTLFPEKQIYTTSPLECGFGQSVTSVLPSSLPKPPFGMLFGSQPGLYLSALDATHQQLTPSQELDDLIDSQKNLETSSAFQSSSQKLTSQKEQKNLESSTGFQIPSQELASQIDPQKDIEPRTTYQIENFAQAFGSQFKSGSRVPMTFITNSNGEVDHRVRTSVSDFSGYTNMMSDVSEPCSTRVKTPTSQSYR

[3] = target: β-transducin repeat-containing protein 2 (β-TrCP2), endogenous (human (endogenous in HCT116)) (UniProt Q9UKB1); test: co-IP; endogenous proteins in total lysates of HCT116 cells, IP with the indicated antibody (anti-ZNF281 or reciprocal), immunoblotting; rabbit IgG as IP negative control
[4] = target: Flag-β-TrCP2 (transfected) (UniProt Q9UKB1); test: co-IP; HCT116 cells co-transfected with ZNF281 and β-TrCP2 constructs, lysed after 48 h in IP buffer (20 mM HEPES pH 7.6, 0.5% Triton X-100, 150 mM NaCl), protein A-Sepharose and 1 μg antibody, Western blotting; in Figure 7A cells treated with MG132 (10 μM) for 10 h and Flag-β-TrCP2 immunoprecipitated

Glycogen synthase kinase 3β (GSK-3β), endogenous (from UniProt P49841 1-420) (enzyme)
binding [1]: binds

Glycogen synthase kinase 3β (GSK-3β), wild type, transfected (from UniProt P49841 1-420) (enzyme)
binding [2]: binds

Glycogen synthase kinase 3α (GSK-3α), transfected (from UniProt P49840 1-483) (enzyme)
binding [2]: no binding

B1: Zinc finger protein 281 (ZNF281), endogenous (protein, UniProt Q9Y2X9 1-895)
chain: MKIGSGFLSGGGGTGSSGGSGSGGGGSGGGGGGGSSGRRAEMEPTFPQGMVMFNHRLPPVTSFTRPAGSAAPPPQCVLSSSTSAAPAAEPPPPPAPDMTFKKEPAASAAAFPSQRTSWGFLQSLVSIKQEKPADPEEQQSHHHHHHHHYGGLFAGAEERSPGLGGGEGGSHGVIQDLSILHQHVQQQPAQHHRDVLLSSSSRTDDHHGTEEPKQDTNVKKAKRPKPESQGIKAKRKPSASSKPSLVGDGEGAILSPSQKPHICDHCSAAFRSSYHLRRHVLIHTGERPFQCSQCSMGFIQKYLLQRHEKIHSREKPFGCDQCSMKFIQKYHMERHKRTHSGEKPYKCDTCQQYFSRTDRLLKHRRTCGEVIVKGATSAEPGSSNHTNMGNLAVLSQGNTSSSRRKTKSKSIAIENKEQKTGKTNESQISNNINMQSYSVEMPTVSSSGGIIGTGIDELQKRVPKLIFKKGSRKNTDKNYLNFVSPLPDIVGQKSLSGKPSGSLGIVSNNSVETIGLLQSTSGKQGQISSNYDDAMQFSKKRRYLPTASSNSAFSINVGHMVSQQSVIQSAGVSVLDNEAPLSLIDSSALNAEIKSCHDKSGIPDEVLQSILDQYSNKSESQKEDPFNIAEPRVDLHTSGEHSELVQEENLSPGTQTPSNDKASMLQEYSKYLQQAFEKSTNASFTLGHGFQFVSLSSPLHNHTLFPEKQIYTTSPLECGFGQSVTSVLPSSLPKPPFGMLFGSQPGLYLSALDATHQQLTPSQELDDLIDSQKNLETSSAFQSSSQKLTSQKEQKNLESSTGFQIPSQELASQIDPQKDIEPRTTYQIENFAQAFGSQFKSGSRVPMTFITNSNGEVDHRVRTSVSDFSGYTNMMSDVSEPCSTRVKTPTSQSYR
binding [3]: binds

B2: HA-ZNF281 (wild type, transfected) (protein, UniProt Q9Y2X9 1-895)
chain: MKIGSGFLSGGGGTGSSGGSGSGGGGSGGGGGGGSSGRRAEMEPTFPQGMVMFNHRLPPVTSFTRPAGSAAPPPQCVLSSSTSAAPAAEPPPPPAPDMTFKKEPAASAAAFPSQRTSWGFLQSLVSIKQEKPADPEEQQSHHHHHHHHYGGLFAGAEERSPGLGGGEGGSHGVIQDLSILHQHVQQQPAQHHRDVLLSSSSRTDDHHGTEEPKQDTNVKKAKRPKPESQGIKAKRKPSASSKPSLVGDGEGAILSPSQKPHICDHCSAAFRSSYHLRRHVLIHTGERPFQCSQCSMGFIQKYLLQRHEKIHSREKPFGCDQCSMKFIQKYHMERHKRTHSGEKPYKCDTCQQYFSRTDRLLKHRRTCGEVIVKGATSAEPGSSNHTNMGNLAVLSQGNTSSSRRKTKSKSIAIENKEQKTGKTNESQISNNINMQSYSVEMPTVSSSGGIIGTGIDELQKRVPKLIFKKGSRKNTDKNYLNFVSPLPDIVGQKSLSGKPSGSLGIVSNNSVETIGLLQSTSGKQGQISSNYDDAMQFSKKRRYLPTASSNSAFSINVGHMVSQQSVIQSAGVSVLDNEAPLSLIDSSALNAEIKSCHDKSGIPDEVLQSILDQYSNKSESQKEDPFNIAEPRVDLHTSGEHSELVQEENLSPGTQTPSNDKASMLQEYSKYLQQAFEKSTNASFTLGHGFQFVSLSSPLHNHTLFPEKQIYTTSPLECGFGQSVTSVLPSSLPKPPFGMLFGSQPGLYLSALDATHQQLTPSQELDDLIDSQKNLETSSAFQSSSQKLTSQKEQKNLESSTGFQIPSQELASQIDPQKDIEPRTTYQIENFAQAFGSQFKSGSRVPMTFITNSNGEVDHRVRTSVSDFSGYTNMMSDVSEPCSTRVKTPTSQSYR
binding [4]: binds
